Experimental data as given in the supplement of paper PMC12645437, “Orthogonal IMiD-Degron Pairs Induce Selective Protein Degradation in Cells” (ACS Chemical Biology, 2025).
Some of the results follow.

Target: no compound (DMSO)
Test: log2 fold change of degron read counts, EGFP-low vs EGFP+ sorted cells; higher = lower degron-EGFP level without compound (poor expression or instability)
Conditions: compound: DMSO control; 18 h
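Also: jurkat cells carrying a lentiviral library of mutant zinc finger degrons fused to EGFP plus mCherry, mCherry+ cells FACS sorted, degron abundance counted by next-generation sequencing.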

| Sequence | log2 fold change of degron read counts |
| --- | --- |
| FRCNICGAGFTQKGNLLRHIKL | -0.541 |
| FICDQCGAYFTQKGNLLRHIKL | -0.754 |
| FSCEICGRCFTQKGNLLRHIKL | -1.74 |
| FTCSVCGHEFTQKGNLLRHIKL | -1.08 |
| LNCNQCGFNCTQKGNLLRHIKL | 0.315 |
| FVCNQCGHRFTQKGNLLRHIKL | -0.096 |
| FYCEQCGASFTQKGNLLRHIKL | -2.13 |
| FWCEICGAHFTQKGNLLRHIKL | -0.423 |
| FGCNICGANFTQKGNLLRHIKL | -0.211 |
| LICEICGFQCTQKGNLLRHIKL | -0.84 |
| FHCSVCGHHFTQKGNLLRHIKL | 0.0243 |
| FKCSVCGHIFTQKGNLLRHIKL | -0.452 |
| FACEICGRRFTQKGNLLRHIKL | -2.04 |
| FGCEICGHNFTQKGNLLRHIKL | -0.551 |
| LFCEICGFFCTQKGNLLRHIKL | 1.98 |
| FACPICGHNFTQKGNLLRHIKL | -0.501 |

| Sequence | log2 fold change of degron read counts |
| --- | --- |
| FQCPICGHDFTQKGNLLRHIKL | -0.49 |
| FHCPICGHKFTQKGNLLRHIKL | -0.455 |
| FYCEVCGACFTQKGNLLRHIKL | -0.63 |
| FWCNQCGHPFTQKGNLLRHIKL | 1.94 |
| FFCEICGAYFTQKGNLLRHIKL | -0.15 |
| LKCEICGFMCTQKGNLLRHIKL | -0.0783 |
| LTCEICGFGCTQKGNLLRHIKL | -0.113 |
| FTCEQCGAAFTQKGNLLRHIKL | -1.64 |
| FMCEICGAEFTQKGNLLRHIKL | -1.79 |
| LHCPICGFQCTQKGNLLRHIKL | 0.366 |
| FCCDQCGADFTQKGNLLRHIKL | -2.2 |
| FKCEICGAEFTQKGNLLRHIKL | -3.25 |
| FHCEICGAQFTQKGNLLRHIKL | -1.55 |
| FRCEVCGATFTQKGNLLRHIKL | -1.53 |
| FDCPICGHRFTQKGNLLRHIKL | -0.156 |
| FNCPQCGAYFTQKGNLLRHIKL | 0.104 |
